# Source: the supplement of paper PMC10338343
# ± gives the standard deviation. The full ranking holds about 6,600 sequences; the median of “pre-steady-state target cleavage rate” is about 0.07, and the highest 2% start at about 0.72. The entries are a selection whose mix differs from that of the whole data set.
# Test system: MIWI (PIWIL1) piRISC loaded with Kctd7 piRNA (30 nt)
# Assay: pre-steady-state target cleavage rate (min^-1); MIWI and MILI are mouse PIWI proteins and EfPiwi is from a freshwater sponge; tags in brackets are library labels; higher = faster piRNA-guided slicing of the target
# Details: guide: Kctd7 piRNA 5'p-UGUUAAUCUCUCAGAGAAGGUGACAGUGAU; auxiliary factor: 500 nM mouse GTSF1
# How it was run: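 A burst-and-steady-state fit was used to obtain the pre-steady-state cleavage rate. The input data were sequencing reads of uncleaved targets, normalised to depth and to weakly complementary targets, from a […] transcribed, DNA-blocked target RNA library mixed with 1 nM active affinity-purified piRISC holding one synthetic guide, with or without 500 nM GTSF1 partner protein, in HEPES–potassium acetate buffer at 33 °C for 0–8 or 0–960 min. Three trials were pooled and k3 was capped at 0.0001 min^-1.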
# 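Note: 1 nM active piRISC with 0.1 nM target library at 33 °C single turnover.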
row,Sequence,pre-steady-state target cleavage rate
1,UUCACUGUCAGCUUCUCUGUGAGAUUAACA,0.237 ± 0.012
2,UAGUGACAGACCUUCUCUGAGAGAAAUACA,0.00954 ± 0.0041
3,UAGUGACACACCUUCUCUGAGAGGAUUAACA,0.168 ± 0.021
4,UAGUGACACACCUUCUCUCAGAGAUUUACA,0.0226 ± 0.0068
5,UUCACUGUCACCUUCACUGUGAGAUUAACA,0.156 ± 0.013
6,AUCACUGAGUCCUUCUCUGAGAGAUUUUGA,0.0434 ± 0.013
7,UAGUCAGUCACCUUCUCUGAGAGAUUUUGA,0.0543 ± 0.016
8,UUCACUGUCACCUUCUCAGAGAGAUAAACA,0.0742 ± 0.01
9,UACUCUGUCACCUUCUCUGAGAGAAUAACA,0.523 ± 0.075
10,UACACUGUCUCCUUCUGUGAGAGAUUAACA,0.427 ± 0.029
11,UAGUCUGUCACCAUCUCUGAGAGAUUAAGA,0.0769 ± 0.013
12,UACACUGUCACCUUAUCUGAGAGAUUAACA,0.548 ± 0.023
13,UACACUGUCACCUUGUCUGAGAGAUUAUGA,0.163 ± 0.04
14,UAGUGACAGACGUUCUCUGAGAGUUUAACA,0.00697 ± 0.0027
15,UAGACUCUGACCUUCUCUGAGAGAUUAACA,0.0488 ± 0.0073
16,UUCUGAGUCACCUUCUCUGAGAGAUUAAGA,0.15 ± 0.022
17,UAGUCUGUGACCUUCUCUGAGACAUUAACA,0.0359 ± 0.0047
18,UUCACUGUCACCUACUCUGAGAGUUUAACA,0.314 ± 0.041
19,UAGUGACAGACCAUUCUCUGAGAGAUUAACA,0.0144 ± 0.0049
20,AUCACUGUCACCUUCUCUCAGAGAUUAAGA,0.0515 ± 0.0097
21,UAGUGACUCACCUAGUCUGAGAGAUUAAGA,0.00421 ± 0.0041
22,UAGUGACACACCUUCUCUGAGAGAAUAACA,0.156 ± 0.032
23,UAGUCUUGUCACCUUCUCUGAGAGAUUAACA,0.686 ± 0.1
24,UAGUGUGUCACCUUCUCUGAGAGGAUUAACA,0.215 ± 0.023
25,UAGUCUGUCACCUUCUGUGAGAGAAUAACA,0.102 ± 0.014

row,Sequence,pre-steady-state target cleavage rate
1,UAGUGAGUCACCUUCUCUCAGAGAUUAUCA,0.0673 ± 0.015
2,UAGUGUGUGACCUUCUCUGAGAGAUUUACA,0.191 ± 0.022
3,AUCACUGACACCUACUCUGAGAGAUUAACA,0.435 ± 0.041
4,AUCACUGUGACCUUGUCUGAGAGAUUAACA,0.16 ± 0.025
5,UAGUGACAGACCUACUCUGAGAGAUUAACA,0.0213 ± 0.0051
6,UUCACUGUCACCUUCUCUGAGAGAAAUACA,0.179 ± 0.038
7,UAGUGACAGUCCUUCUCUGAGAGAUUAAGA,0.0171 ± 0.003
8,UAGUGACACACCUUCUCUGUGACAUUAACA,0.0527 ± 0.0094
9,UAGUGACUCACCUUCUCUAAGAGAUUAACA,0.309 ± 0.023
10,UAGUGAGUCACCUUCUCUGAGUCAUUAAGA,0.00562 ± 0.003
11,UAGUGUGUCACCUUCUCUGAGAGUUAUUGA,0.128 ± 0.039
12,UACACUGUCACCUUCUGUGAGAGAUUAUGA,0.0196 ± 0.0073
13,UAGACUGUCAACUUCUCUGAGAGAUUAACA,0.726 ± 0.049
14,UAGUGACACACCUUCAGUGAGAGAUUAACA,0.0157 ± 0.0053
15,UAGACUGUCUCCAUCUCUGAGAGAUUAACA,0.639 ± 0.049
16,UUCACUGUCACCUACUCUGAGAGAUUUACA,0.385 ± 0.051
17,UUCACUGACACCUUCUCUGAGAGUUUAACA,0.591 ± 0.11
18,UUCACUGUCACGUUCUCUGAGAGAUUAAGA,0.117 ± 0.018
19,UACACUGUCACCUUGACUGAGAGAUUAAGA,0.00874 ± 0.0072
20,UAGACAGUCACCUUCUCUGAGAGAUAAACA,0.397 ± 0.041
21,UACACUGUGACCUUGUCUGAGAGAUUAACA,0.0711 ± 0.013
22,UUCACUGUCACCUUCUCUGAGAGUAAUUGA,0.299 ± 0.086
23,UAGUGAGUCACGUUCUCAGAGAGAUUAACA,0.171 ± 0.017
24,UAGUGACACACCUUCUCUGAGAGAUUAAACA,0.458 ± 0.044
25,UAGUGACACACCGUUCUCUGAGAGAUUAACA,0.239 ± 0.02

row,Sequence,pre-steady-state target cleavage rate
1,UAGUCUGACACCUUCUCUGAGAGAUUAAGA,0.133 ± 0.019
2,UACACUCUCACCUUCUCUGAGAGAUUUUGA,0.0675 ± 0.013
3,UAGUCUGUCACCUUCUCUGAGAGAUCUAACA,0.289 ± 0.049
4,AUCACUGUCACCUUCUGUGAGAGAUUAACA,0.644 ± 0.033
5,UAGUGAGUCACCUACUCUGAGAGAUUUACA,0.311 ± 0.055
6,UUCACUGUCACCUUCUCAGAGUGAUUAACA,0.0211 ± 0.0051
7,UAGUGAGUCGACCUUCUCUGAGAGAUUAACA,0.156 ± 0.019
8,UAGUGAGACACCUUCUCUGAGAGAUUAAGA,0.0909 ± 0.019
9,UAGUGACAGAGCUUCUCUGUGAGAUUAACA,0.00703 ± 0.0036
10,UACGCUGUCACCUUCUCUGAGAGAUUAACA,0.745 ± 0.038
11,UAGUCUGUCACCUUCUCAGAGAGAAUAACA,0.0484 ± 0.01
12,UAGUGAGUCACCUUCUCUCAGAGAUUAACA,0.0958 ± 0.0087
13,UAGUGAGUCACCUUCUCUGAGAAGAUUAACA,0.0342 ± 0.0097
14,UAGUGACAGUCCUUCUCUGAGACUUUAACA,< 0.0001
15,AUCACUGUCACCUUCUCUGAGUAGAUUAACA,0.025 ± 0.0077
16,UAGUCUGUCACCUUCUCUGACAGAUUAUCA,0.00526 ± 0.0041
17,UAGUGACAGUGGAUCUCUGAGAGGUUAACA,< 0.0001
18,UAGACUGUCAGCUUCUCUCAGAGAUUAACA,0.0676 ± 0.0041
19,AUCACUGUCACCUUCUCUGUGAGAUUAUCA,0.127 ± 0.026
20,UAGUGUGUCACCUCUCUGAGAGAUUAACA,0.263 ± 0.029
21,UACACUGUCUCCUUCUCUGAGAGAUUAAGA,0.0715 ± 0.018
22,UACACUGUCACCUUCUCUGAGAGAUAUACA,0.255 ± 0.04
23,UAGUGUGUCACCUUCUCUCUGAGAUUAACA,0.0168 ± 0.004
